Data from publication PMC12136788.
The other results are listed elsewhere or left out.

B1: chr7:44121865:44121972:-|CDS|ENSG00000106628|unk|FALSE|unique (ssRNA)
RNA: GGGAGUUCUACAGUCCGACGAUCGUGCCAGUGGCAACCUACACCAACUCCUCACAACCCUUCCGGCUAGGAGAGCGCAGCUUUAGCCGGCAGUAUGCCCACAUUUAUGCCACCCGCCUCAUCCAAAUGAGACCCUUCCUGGAGCAACAGAGGAUUGAGCAUCA
B2: chr1:43997547:43997739:-|CDS|ENSG00000196517|control|control|control (ssRNA)
RNA: GGGAGUUCUACAGUCCGACGAUCAAGCAGAGACUGGGGCCCUGCCCUCCUGGAGCACCGGACAGGGCGCUACGCCCCCACCAUAGCCCCCUCUCCUGAGGACGGCUUCGAGGUCCAGCCACUGCACCCGGACAAGGCGCAGAUCAACAGAGGAUUGAGCAUCA
B3: chr12:108522223:108522324:-|3pUTR|ENSG00000075856|msi1|total|mutant (ssRNA)
RNA: GGGAGUUCUACAGUCCGACGAUCUCAGUCGGGUUUUCUAUAUUUUUUUAACUUAACAUUUUUUAAUAUAACCGAUUAAAAAGCCGACAGAACAGUAAAAUAAACUCCUGUGUGCCUACCAUUCAGCUUCCAGCAUUCCUCAACCAACAGAGGAUUGAGCAUCA
B4: ENSG00000120265:stop:overlap|stop_codon|ENSG00000120265|stop_codon|NA|stop_codon (ssRNA)
RNA: GGGAGUUCUACAGUCCGACGAUCUAGCUGACUCUACAGGAGAAGAAAUUUUUAGCUGCCGUACUUUAGAGGGACUGUUUUACUAGAUGAGCACGUUACCCUUUGGCAUGAUUAUAUUUUCUAAUUUUAACUGCUGGGUGACAGCAACAGAGGAUUGAGCAUCA
B5: chr14:44928120:44928223:-|3pUTR|ENSG00000179454|unk|FALSE|unique (ssRNA)
RNA: GGGAGUUCUACAGUCCGACGAUCUAGUACAGCAGGCCUCCCAGUGCUGAUGUAAAUAUUUGAGCAGUGUUUAGUACCAUUCUUAGUGCAUAUUAAUUUUUUUAUAUAUCCUUAUAAUUUUAGUUUUUUAAGAUCUUUGCUUUUCAACAGAGGAUUGAGCAUCA
B6: chr10:11763304:11763405:+|CDS|ENSG00000134463|unk|FALSE|unique (ssRNA)
RNA: GGGAGUUCUACAGUCCGACGAUCGGGCUGCUUAGCAAGGUGGUGCCAGAGGCGGAGCUGCAGGAGGAGACCAUGCGGAUCGCUAGGAAGAUCGCAUCGCUGAGCCGUCCGGUGGUGUCCCUGGGCAAAGCCACCUUCUACAAGCAACAGAGGAUUGAGCAUCA
B7: ENSG00000198589:be:win_4601|CDS|ENSG00000198589|bound_else_gene|NA|bound_elsewhere_windowed (ssRNA)
RNA: GGGAGUUCUACAGUCCGACGAUCUGGCAGUAGUAUACUUUAUCUCUGUUCUUAUGGUCUCCAAGUACAGAGACAUUUUGGAACCCCAAAAUGAAAGGCAUAGCCAGUCAUGUACAGAAACUGGCAGUGAAAAUGAGAAUGUAUCAACAGAGGAUUGAGCAUCA
B8: chr10:67912576:67912687:+|CDS|ENSG00000096717|unk|total|mutant (ssRNA)
RNA: GGGAGUUCUACAGUCCGACGAUCUUUUGAUGCCGAGCUUCUUGGAGACUGUGAUGUCAUAAUUAAUGAAUUGUGUCACCGGUCCGGUGGUGAAUAUGCCAAACUUUGCUGUAACCCUGUAAAGCUUUCAGAAAUUACUGAAAACAACAGAGGAUUGAGCAUCA
B9: chr2:27041412:27041530:+|3pUTR|ENSG00000119777|msi1_unk|total|mutant (ssRNA)
RNA: GGGAGUUCUACAGUCCGACGAUCACUUCAAAAUGCCCAGCCUGCCCCAAAUGCCUCUAAGCCCCUCCCUGUCCCCUCCCUUGCCGUCCUACUUCUUCCAACUUUCCAUUCCCCAUCAUGCUGGGGGUCUUGGUCACAAGGCUCCAACAGAGGAUUGAGCAUCA
B10: chr15:64682558:64682659:+|3pUTR|ENSG00000180357|unk|FALSE|bound_elsewhere (ssRNA)
RNA: GGGAGUUCUACAGUCCGACGAUCCACACUGGUCUUGCCUCUUCUUUUCCACUGCUUGGCUCUUAAGCCUCAGGCAGAUAAACUAGUAUUCCCCCCAGCUUGGGGAACCUUGGAGUCUGCCAGGUCACCUUAGGGCAAGGCCCACAACAGAGGAUUGAGCAUCA
B11: chr17:75827259:75827360:-|3pUTR|ENSG00000092929|unk|total|mutant (ssRNA)
RNA: GGGAGUUCUACAGUCCGACGAUCGGACAGUUUGGCUGCUGUGUCUGCUGCGCACGCCCCCUCCCCGGACAGCACCUGCCACCCCGAAACUUUCUCCGCAAAAAAAUUAAUAAAAACAAAUCCAUUGUCCUCUUAAAAUAUGCCCAACAGAGGAUUGAGCAUCA
B12: ENSG00000136451:be:win_3101|3pUTR|ENSG00000136451|bound_else_gene|NA|bound_elsewhere_windowed (ssRNA)
RNA: GGGAGUUCUACAGUCCGACGAUCUUCCAUUUAUACCCUACUGUGUCAGUUCAAGCAUCAAAAUACCUUGCAUCUGAGACAGACUUCCUACAUCAGGGACAGGUAUCUGUGUGUCAUUAUACAAAACAGUUCUAGGGGGUUGAACAACAGAGGAUUGAGCAUCA
B13: chr9:122916526:122916627:-|3pUTR|ENSG00000171448|unk|total|mutant (ssRNA)
RNA: GGGAGUUCUACAGUCCGACGAUCAUGCUUCCCCGCAUUGUGAUUUUUACAUGAUCCAGCCAAAGAGUACCAAUUCUAUGCAACCGUGAGACUCUACCCUGUCAACCAAACAGCAUUUUUUGGUAUUUUCUGUCAACAUCAUUUCAACAGAGGAUUGAGCAUCA
B14: chr19:13098382:13098626:+|3pUTR|ENSG00000008441|msi1|total|mutant (ssRNA)
RNA: GGGAGUUCUACAGUCCGACGAUCACGCAGUAUAUACGAGUAUCUCUAUAUACCGUACUAAUGGAUUUGGUGUGCUUCCCCCUCCGCGUCCCCCUCCCUCUGCUCCUCCUCCUUCAGCCUGGUCUCCCCCUCUUCUCUGCCCUCCAACAGAGGAUUGAGCAUCA
B15: chr1:45003092:45003193:-|3pUTR|ENSG00000126107|msi1|FALSE|unique (ssRNA)
RNA: GGGAGUUCUACAGUCCGACGAUCGGAAUCUUCCACAAGCCCAGCACAAGCUGCCAGGCCUGAGCUACUUGAAGGGGGCCAUCUAGGUCCCCAACCCAUGGACUUUGCCUCCAUUUUCAGCUCCGCCUUUUUUCUCCUAUUUUCCAACAGAGGAUUGAGCAUCA
B16: chr1:161190761:161190881:-|3pUTR|ENSG00000158859|msi1|FALSE|unique (ssRNA)
RNA: GGGAGUUCUACAGUCCGACGAUCUGCGGGUCACAGGAGGGAGGGGGAAGGCAGGGAGGGCCUGGGCCCCAGUUGUAUUUAUUUAGUAUUUAUUCACUUUUAUUUAGCACCAGGGAAGGGGACAAGGACUAGGGUCCUGGGGAACAACAGAGGAUUGAGCAUCA
B17: chr4:150908776:150908877:-|CDS|ENSG00000198589|msi1|FALSE|bound_elsewhere (ssRNA)
RNA: GGGAGUUCUACAGUCCGACGAUCGUUGAUUUGUACUUAGAUUCUCUUUGUGGCAUACUAUUUAACUGUUUUUAAUUAAUUCUUAGGGUACAUUUAAAUUCAAAGCAGAAAGCGACCUUUUCCUUGCUGAGCAUCACAAACUUUCAACAGAGGAUUGAGCAUCA
B18: chrX:152990254:152991598:-|CDS|ENSG00000198883|control|control|control (ssRNA)
RNA: GGGAGUUCUACAGUCCGACGAUCAUACAGGGAGGCUUACCCCCAUUAGUGAAACGCAGGCGGCUGUUAGGCAGUGAAAGCACUAGGGGAGAAGACCAUGGCCAGGCCACGUAUCCCAAGGCUGAAAACCAGACUCCAGGCAGGCAACAGAGGAUUGAGCAUCA
B19: chr1:202147012:202148699:-|three_prime_utr|ENSG00000143851|control|control|control (ssRNA)
RNA: GGGAGUUCUACAGUCCGACGAUCAAGUGGGCCGAGUGAUCUGGGGGUACCCCUUGGGUUGGUGUGGGGAAGGAGUGCCUCCUUAGUGGUGCUUGCAGUCACAGGAAGCAGCAGCAGUAAGGACAAGGGGCCGGAUUCCAGGUCCAACAGAGGAUUGAGCAUCA
B20: ENSG00000198589:be:win_3051|CDS|ENSG00000198589|bound_else_gene|NA|bound_elsewhere_windowed (ssRNA)
RNA: GGGAGUUCUACAGUCCGACGAUCAGAAAUGAAAGCUGAGCAAGAAAAUCAGGAGUUACCAGAUGAAGGCACUUUGGAAGAAACACUGACAAAUGAGACAAGGAAUGCAGAUGAUUUAGAAGUAUCUUCUGACAUAAUAGAAGCCAACAGAGGAUUGAGCAUCA
B21: chr7:135927258:135927359:-|3pUTR|ENSG00000105887|msi1_unk|total|mutant (ssRNA)
RNA: GGGAGUUCUACAGUCCGACGAUCCAGCUUCAGACUGUUAUCUACCGGCUUAUCGUUCAAAUACAGCACUUGAAUAUCCCAAGCCGUUCUUCUACGCACCGCUCACCUUUCUAAACCCAGUUAAGCAUGGAAGAGAGGCCGCCGCAACAGAGGAUUGAGCAUCA
B22: chr2:210024032:210024201:-|CDS|ENSG00000144445|control|control|control (ssRNA)
RNA: GGGAGUUCUACAGUCCGACGAUCUACAGUAAAAAUGUUGAAGGACAGGACUUGCUUUUGAAAGAAUACCCUAAUAACUUCAGUAGCAGUCAGCAAUGUGCUGCUGCAAGUCCUCCUGGGCUUCCUUCAGAGAACCAGGAUCUGCAACAGAGGAUUGAGCAUCA

target: MSI1 full-length (mouse, UniProt Q61474 1-362); experiment: nsRBNS (natural sequence RNA bind-n-seq); RBNS binding buffer (assumed for nsRBNS): 25 mM Tris pH 7.5, 150 mM KCl, 3 mM MgCl2, 0.01% Triton X-100, 500 ug/ml BSA, 20 U/ml SUPERase-In, 4 C; UNK is unkempt and MSI1 is Musashi-1; names of the RNAs are library labels; protein concentration not given here; high values mean tight binding
Sequence of UniProt Q61474 (Q61474 whole entry): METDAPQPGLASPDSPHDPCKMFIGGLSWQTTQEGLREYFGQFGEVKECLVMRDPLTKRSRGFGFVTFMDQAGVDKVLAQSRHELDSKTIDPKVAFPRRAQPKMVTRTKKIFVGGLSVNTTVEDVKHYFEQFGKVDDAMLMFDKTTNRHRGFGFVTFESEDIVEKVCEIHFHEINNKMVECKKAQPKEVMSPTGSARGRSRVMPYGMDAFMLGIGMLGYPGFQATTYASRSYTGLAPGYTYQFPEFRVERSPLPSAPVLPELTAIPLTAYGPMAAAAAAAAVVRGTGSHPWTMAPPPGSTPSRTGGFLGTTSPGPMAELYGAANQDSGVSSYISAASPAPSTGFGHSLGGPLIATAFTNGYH

| Binder | binding signal [enrichment R] |
| --- | --- |
| B1 | 0.629 |
| B2 | 0.351 |
| B3 | 0.95 |
| B4 | 1.09 |
| B5 | 35.6 |
| B6 | 0.504 |
| B7 | 0.339 |
| B8 | 0.172 |
| B9 | 0.832 |
| B10 | 0.307 |
| B11 | 0.516 |
| B12 | 0.41 |
| B13 | 0.226 |
| B14 | 0.998 |
| B15 | 0.465 |
| B16 | 14.9 |
| B17 | 5.5 |
| B18 | 0.808 |
| B19 | 0.536 |
| B20 | 0.825 |
| B21 | 0.394 |
| B22 | 0.408 |
